# Source: PubChem BioAssay AID504332 (National Center for Advancing Translational Sciences (NCATS), 2011)
# About 31,000 (8.9%) of roughly 350,000 compounds were called active. The shares of active, inactive and inconclusive entries below differ from those in the screen. Calls follow the shape of the dose curve; as a rule, active = well fitted inhibition curve with a large enough effect; inconclusive = small, poorly fitted or top-dose-only effect; inactive = no such curve, though single readings can be large or run the other way. Potencies of inconclusive entries are doubtful fits and often do not repeat.
# Target: Histone-lysine N-methyltransferase EHMT2 (Homo sapiens) (UniProt Q96KQ7)
# Experiment: qHTS Assay for Inhibitors of Histone Lysine Methyltransferase G9a; also: nearly all actives have a fitted effect of over 75% in size
# Settings: G9a H3K9 monomethylation, AlphaScreen, 2 h; activity, negative = inhibition: at 59 µM (top of the series) unless noted
# Outline: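 AlphaScreen detection with an anti-monomethyl H3K9 antibody quantified product after a 2 h room-temperature reaction containing 500 nM biotinylated H3K9 peptide, 20 µM SAM and 20 nM enzyme, which had been preincubated 15 min with compound.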
# % is scaled to controls: 0 for no effect and ±100 for the full control effect; potency is read from the fitted curve at half-maximal effect; tags tell the direction and shape of the fitted curve.
# Chain of UniProt Q96KQ7 (Q96KQ7 whole entry, looked up): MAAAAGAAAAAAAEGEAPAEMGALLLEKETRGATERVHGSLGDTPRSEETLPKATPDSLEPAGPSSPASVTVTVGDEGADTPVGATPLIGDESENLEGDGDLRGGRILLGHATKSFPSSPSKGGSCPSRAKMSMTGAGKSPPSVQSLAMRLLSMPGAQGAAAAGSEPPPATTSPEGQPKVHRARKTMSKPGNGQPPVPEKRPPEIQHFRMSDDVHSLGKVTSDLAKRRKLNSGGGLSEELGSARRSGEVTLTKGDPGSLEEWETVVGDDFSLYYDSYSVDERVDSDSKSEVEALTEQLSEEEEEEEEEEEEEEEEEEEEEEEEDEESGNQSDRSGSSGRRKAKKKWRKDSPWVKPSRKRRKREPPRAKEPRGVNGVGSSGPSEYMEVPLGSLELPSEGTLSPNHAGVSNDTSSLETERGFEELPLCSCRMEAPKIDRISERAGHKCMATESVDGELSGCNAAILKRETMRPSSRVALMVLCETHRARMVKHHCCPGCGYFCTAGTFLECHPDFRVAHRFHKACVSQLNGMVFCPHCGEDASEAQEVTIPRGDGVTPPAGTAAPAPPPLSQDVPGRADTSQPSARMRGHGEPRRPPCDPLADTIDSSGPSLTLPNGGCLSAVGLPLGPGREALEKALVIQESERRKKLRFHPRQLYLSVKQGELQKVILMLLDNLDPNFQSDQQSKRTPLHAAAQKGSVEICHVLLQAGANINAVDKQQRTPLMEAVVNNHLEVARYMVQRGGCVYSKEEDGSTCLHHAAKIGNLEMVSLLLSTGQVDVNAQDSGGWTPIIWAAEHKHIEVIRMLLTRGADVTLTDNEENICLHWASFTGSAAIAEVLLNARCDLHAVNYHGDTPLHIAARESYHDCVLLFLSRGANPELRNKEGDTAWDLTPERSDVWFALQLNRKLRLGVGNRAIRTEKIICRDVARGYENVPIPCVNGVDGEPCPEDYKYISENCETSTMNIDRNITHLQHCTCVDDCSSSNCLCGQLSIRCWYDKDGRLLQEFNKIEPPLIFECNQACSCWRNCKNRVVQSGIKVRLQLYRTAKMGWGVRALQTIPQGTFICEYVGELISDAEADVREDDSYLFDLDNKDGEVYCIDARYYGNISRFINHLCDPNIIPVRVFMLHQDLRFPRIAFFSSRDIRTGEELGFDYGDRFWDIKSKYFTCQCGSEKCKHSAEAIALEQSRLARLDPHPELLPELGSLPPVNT
SMILES,Potency,"activity, negative = inhibition"
O=C(NCC(c1ccc2c(c1)OCO2)N1CCN(c2ccccc2)CC1)c1ccc(F)c(F)c1 (stereo unspecified),"inconclusive: 14.1 µM [inhibitor, partial curve, poor fit]",
COc1ccc(-c2csc(Nc3ccc(S(=O)(=O)Nc4cc(C)on4)cc3)n2)cc1C,active: 39.8 µM,
Cc1ccc(NC(=O)COc2ncnc3cc([N+](=O)[O-])ccc23)cc1S(=O)(=O)N1CCOCC1,"inconclusive: 35.5 µM [inhibitor, partial curve, poor fit]",
CN(C(=O)c1coc(=O)c2ccccc12)c1ccc(Br)cc1,"inconclusive: 1.78 µM [inhibitor, partial curve, poor fit]",
CCN1CCN(C(=O)/C(C#N)=C/c2ccc(OC(F)F)cc2)CC1,"inconclusive: 50.1 µM [inhibitor, partial curve]",
C#CCn1cc(Cl)cc(C(=O)Nc2ccccc2)c1=O,inactive,
CCOC(=O)/C(=N\Nc1cc(C(F)(F)F)ccc1Cl)N(CC)CC,active: 3.55 µM,
O=C(CCc1ccccn1)NC1CCCc2c1cnn2-c1ccc(F)cc1F (stereo unspecified),"inconclusive: 89.1 µM [inhibitor, single point]",
COc1ccc(OC)c(NC(=S)NCc2ccccc2OC)c1,"inconclusive: 28.2 µM [inhibitor, partial curve]",
CCOC(=O)c1sc(N(Cc2ccccc2)C(=O)CCl)nc1C,active: 39.8 µM,
O=C(NCCN1CCOCC1)c1ccc2c(c1)N(Cc1ccccc1)CCS2,active: 50.1 µM,
O=C(O)c1cccc(S(=O)(=O)Nc2cccc(S(=O)(=O)N3CCCCCC3)c2)c1,"inconclusive: 39.8 µM [inhibitor, partial curve, poor fit]",
O=C(Oc1ccccc1)N1CCN(C(=O)c2ccco2)CC1,inactive,
COC(=O)c1c(N)n(-c2ccc(NC(C)=O)cc2)c2nc3ccccc3nc12,"inconclusive: 1.78 µM [inhibitor, partial curve, poor fit]",
CCc1ccc(NC(=O)COC(=O)CN2C(=O)COc3ccccc32)cc1,inactive,
Cn1cccc1-c1cc2n(n1)CCC(=O)N2CCCC(=O)NCc1cccc(Cl)c1,"inconclusive: 28.2 µM [inhibitor, single point]",
Oc1ccc(C(c2nnnn2C2CCCC2)N2CCc3ccccc3C2)cc1 (stereo unspecified),active: 4.47 µM,
CCOc1ccc(C(=O)NN2C(=O)C3C4C=CC(O4)C3C2=O)cc1 (stereo unspecified),active: 6.31 µM,
FC(F)(F)c1ccccc1-n1c(-c2ccco2)n[nH]c1=S,active: 15.8 µM,
COc1ccc(N2C(=O)CC(N3CCCCC3)C2=O)cc1 (stereo unspecified),"inconclusive: 39.8 µM [inhibitor, full curve, poor fit]",
C#CCNC(=O)C1=C[C@@H](c2cn(C(C)=O)c3ccccc23)C[C@@H](OCCCCO)O1,,inconclusive: -79.4% [inhibitor]
COCCCn1c2nc3ccccc3nc2c2c(=O)n(-c3ccccc3OC)cnc21,inactive,
O=C(O)CCN1Cc2ccccc2C1=O,active: 50.1 µM,
COc1ccc(NS(=O)(=O)c2ccc3c(c2)OCCO3)cc1OC,"inconclusive: 6.31 µM [inhibitor, full curve]",

SMILES,Potency,"activity, negative = inhibition"
O=S(=O)(c1ccc(NC(=S)Nc2ccc(OC(F)F)cc2)cc1)N1CCOCC1,"inconclusive: 89.1 µM [inhibitor, single point]",
COc1ccc(C(=O)NNC(=O)CSc2nnc(C3CC3)n2C)cc1,"inconclusive: 89.1 µM [inhibitor, single point]",
CCc1ccccc1S(=O)(=O)Cc1ccc(C(=O)NCCc2ccc(Cl)cc2)o1,inactive,
O=C1NC2(Nc3ccccc31)C(=O)Nc1ccc(Br)cc12 (stereo unspecified),"inconclusive: 0.631 µM [inhibitor, full curve, poor fit]",
Cc1ccc2cc(NC(=O)Cc3ccccc3)ccc2n1,"inconclusive: 70.8 µM [inhibitor, single point]",
Cc1nnc(NC(=O)CSc2nccn2Cc2ccccc2)s1,inactive,
CC(=O)C1C(c2ccc(F)cc2)c2c(noc2C)CC1(C)O (stereo unspecified),,inactive: -7.35% [at 12.7 µM]
CCOC(=O)N1CCN(S(=O)(=O)c2ccc(C(=O)Nc3nnc(C4CC4)o3)cc2)CC1,inactive,
Cc1ccc(C(=O)Nc2cc(-c3cn4cccnc4n3)ccc2C)cc1C,"inconclusive: 31.6 µM [inhibitor, single point]",
CSCCC(NS(=O)(=O)c1ccc2c(c1)oc(=O)n2C)C(=O)NCc1ccc(Cl)cc1 (stereo unspecified),inactive,
Cc1ccc(C)c(NC(=O)c2nc(S(=O)(=O)Cc3ccc(F)cc3)ncc2Cl)c1,inactive,
CCCn1c(N2CCN(CC(=O)NCc3cccs3)CC2)nc2ccccc21,"inconclusive: 44.7 µM [inhibitor, partial curve, poor fit]",
COc1ccc(-n2c(=S)[nH]c3cc(C(=O)NCCCN4CCOCC4)ccc3c2=O)cc1OC,active: 35.5 µM,
COc1ccc(CNC(=O)c2c(O)c3cccc4c3n(c2=O)CCC4)cc1,inactive,
Cc1ccc(/C=C/C(=O)N2CCN(c3ncccn3)CC2)o1,active: 3.98 µM,
O=S(=O)(Nc1ccccc1N1CCOCC1)c1ccc(Cl)s1,"inconclusive: 39.8 µM [inhibitor, single point]",
CCc1ccc(O)c(N=Cc2ccccc2O)c1,"inconclusive: 0.355 µM [inhibitor, partial curve, poor fit]",
CCOc1cc2c(cc1OCC)C(C(=O)O)C(c1cc(OC)c(OC)c(OC)c1)N(C)C2=O (stereo unspecified),"inconclusive: 0.891 µM [inhibitor, full curve, poor fit]",
CNC(=O)NC(=O)C(C)N1CCN(C/C=C/c2ccccc2)CC1 (stereo unspecified),"inconclusive: 89.1 µM [inhibitor, partial curve, poor fit]",
Cc1cc(NC(=O)C(C)Sc2nnc(NCc3ccco3)s2)no1 (stereo unspecified),"inconclusive: 31.6 µM [inhibitor, single point]",
CC1Cc2cc(S(=O)(=O)N3CCC(C(=O)NCc4ccco4)CC3)ccc2N1C(=O)C1CCC1 (stereo unspecified),inactive,
CCOC(=O)c1ccc(-n2c(CCC(=O)O)ccc2-c2ccccc2)cc1O,active: 17.8 µM,
CC(C)(C)C(=O)NCCn1ccc2ccccc21,inactive,
CN(C(=O)c1ccco1)c1nnc(C23CC4CC(CC(C4)C2)C3)s1,"inconclusive: 70.8 µM [inhibitor, single point]",

SMILES,Potency,"activity, negative = inhibition"
CC(C)CCNc1nc(Nc2ccccc2)c2cnn(C)c2n1,inactive,
N#C/C(=C\c1cccc(NC(=O)c2ccccc2Cl)c1)C(=O)NCCc1ccccc1,"inconclusive: 5.62 µM [inhibitor, partial curve, poor fit]",
CCCCCn1c(N(C)Cc2ccccc2)nc2c1c(=O)[nH]c(=O)n2C,"inconclusive: 39.8 µM [inhibitor, partial curve, poor fit]",
O=C(CN1CCN(c2ncc(C(F)(F)F)cc2Cl)CC1)N1CCN(c2ncc(C(F)(F)F)cc2Cl)CC1,active: 50.1 µM,
CCCNC(=O)c1cc2c3ccccc3n(C)c2s1,,inconclusive: -101% [inhibitor]
CC1CCCN(C(=O)COc2ccc(Nc3ccccc3)cc2)C1 (stereo unspecified),active: 39.8 µM,
Cc1ccc(-c2noc(CCC(=O)NCc3ccco3)n2)cc1,"inconclusive: 25.1 µM [inhibitor, single point]",
CCOC(=O)C1=C(CN2c3ccccc3CC2C)NC(=O)NC1c1ccccc1 (stereo unspecified),"inconclusive: 50.1 µM [inhibitor, partial curve, poor fit]",
CCc1nc(NCCN2CCOCC2)c2oc3ccccc3c2n1,"inconclusive: 89.1 µM [inhibitor, single point]",
COc1ccc(N2CCN(C(=O)C(CC(C)C)NS(=O)(=O)c3ccc4nc(C)sc4c3)CC2)cc1 (stereo unspecified),"inconclusive: 25.1 µM [inhibitor, partial curve, poor fit]",
CN(C)c1ccc(CNC(=O)C2CCN(S(=O)(=O)c3ccc4c(c3)CCC(=O)N4)CC2)cc1,"inconclusive: 10 µM [inhibitor, partial curve, poor fit]",
CC(CC(=O)Nc1ccc(F)cc1)S(=O)(=O)c1cc2c3c(c1)CCN3C(=O)CC2 (stereo unspecified),inactive,
O=C(CSc1nc2ccccc2o1)NC(=O)NCc1ccco1,,inactive: 40.7% [at 12.7 µM]
O=C(O)c1c2c(nc3ccccc13)/C(=C/c1ccc(O)cc1)CCC2,inactive,
CCc1c(C)c2nncn2[nH]c1=O,"inconclusive: 1.12 µM [inhibitor, partial curve, poor fit]",
Cc1cc(C)n2nc(S(=O)(=O)NC(C)(C)C)nc2n1,inactive,
Cc1ncoc1C(=O)N1CCCC(C(=O)c2ccc3c4c(cccc24)CC3)C1 (stereo unspecified),"inconclusive: 35.5 µM [inhibitor, partial curve]",
Cc1nc(S(=O)(=O)c2ccc(Cl)cc2)c(NCc2ccccc2)o1,active: 44.7 µM,
Cc1cc(N2C(=O)C(O)=C(C(=O)c3cccs3)C2c2cccc(Br)c2)no1 (stereo unspecified),"inconclusive: 50.1 µM [inhibitor, partial curve]",
O=C(NC1CCCCC1)c1ccc2c(c1)N(Cc1cccc(Cl)c1)C(=O)c1ccccc1S2(=O)=O,inactive,
CCOC(=O)N1CCN(C(=O)C(C)N(c2ccc(Oc3ccccc3)cc2)S(C)(=O)=O)CC1 (stereo unspecified),"inconclusive: 0.891 µM [inhibitor, partial curve, poor fit]",
Cc1ccc(CNc2cc(C)nc3nc(-c4ccc(C)cc4)nn23)cc1,inactive,
O=c1[nH]c(CN2CCN(C/C=C/c3ccccc3)CC2)nc2ccccc12,,inconclusive: -71.2% [inhibitor]
